Results: PubChem BioAssay AID1347073 (National Center for Advancing Translational Sciences (NCATS), 2019)
In all, about 45,000 compounds went through this assay and about 200 (0.44%) were called active. Roughly 7% stayed inconclusive and do not appear here. The call rests on the fitted dose curve; in most records, active means well fitted activation curve with a large enough effect; inconclusive means small, poorly fitted or top-dose-only effect; inactive means no such curve, though single readings can be large or run the other way. This is one part of the list.

Test: qHTS of TDP-43 Inhibitors: NCGC Sytravon Library Screen; further: 0% is about no effect; nearly all actives have a fitted effect of over 55% in size
Settings: yeast TDP-43 toxicity rescue, BacTiter-Glo growth, 24 h; series mostly up to 46.1 µM; growth rescue (activation): at the top concentration
How it was run: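 TDP-43-expressing yeast, pregrown in raffinose, seeded at OD600 0.02 in galactose medium with compound for 24 hr at 30 deg C. Growth read by BacTiter-Glo luminescence, so rescue of toxicity appears as activation.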

Row | Structure (SMILES) | growth rescue (activation)
1 | O=S(=O)(c1cc(Cl)ccc1Cl)N1CCN2CCCC2C1 (stereo not drawn) | inactive: -1.74%
2 | CSCC[C@H](NC(=O)NCCC1=CCCCC1)C(=O)O | inactive: 12.4%
3 | O=C(Cn1cc(C(F)(F)F)ccc1=O)Nc1cccc(S(=O)(=O)N2CCOCC2)c1 | inactive: 1.11%
4 | COc1ccc(OC)c(-n2c(=S)[nH]c3c(sc(=S)n3-c3ccccc3)c2=O)c1 | inactive: -6.46%
5 | O=C(Nc1ccnn1C1CCNCC1)c1ccc2c(c1)OCO2 | inactive: -7.21%
6 | COc1ccccc1-c1ocnc1C(=O)N1CCN(C(=O)C(c2ccccc2)c2ccccc2)CC1 | inactive: -4.31%
7 | COC(=O)C1CCN(C(=O)CN2C(=O)NC3(CCC(C)CC3)C2=O)CC1 (stereo not drawn) | inactive: -2.01%
8 | O=C(NCC1(O)CCCCC1)C1CCC(=O)N(CCc2ccccc2)C1 (stereo not drawn) | inactive: -8%
9 | COC(=O)/C=C1\SC(=NC(=O)c2ccc(OC)cc2)NC1=O | inactive: -0.504%
10 | Cc1nn(Cc2ccccc2)c2c1C(c1cccc(Cl)c1)C(C#N)=C(N)O2 (stereo not drawn) | inactive: 4.67%
11 | Cc1ccc(OCC(=O)NCCNC(=O)c2ccco2)cc1C | inactive: 1.47%
12 | Cc1cc(C)cc(C(O)c2ncc(-c3ccccc3C(F)(F)F)[nH]2)c1 (stereo not drawn) | inactive: 10.5%
13 | CN(NC(=O)c1ccccc1F)c1nc(C(F)(F)F)nc2ccccc12 | inactive: 15.1%
14 | CCOc1ccccc1C(=O)Nc1c[nH]c(=O)[nH]c1=O | inactive: 15.7%
15 | CN1/C(=C\C(=O)C(F)F)C(C)(C)c2ccccc21 | inactive: 12%
16 | CCC(=O)NC(c1ccc(C)cc1)c1ccc2cccnc2c1O (stereo not drawn) | inactive: 9.92%
17 | NS(=O)(=O)c1ccc(N=Nc2c(O)[nH]c3ccc(Br)cc23)cc1 | inactive: -4.76%
18 | Nc1cc(-c2ccc(Cl)cc2)nn1-c1ccccc1 | inactive: 16%
19 | O=C(CN1C(=O)c2ccccc2C1=O)NC1CCCCCC1 | inactive: -9.81%
20 | O=C(Cc1cnc2ncnn2c1)N1CCc2c([nH]c3ccccc23)C1c1ccccn1 (stereo not drawn) | inactive: 0.129%
21 | CC(CCc1ccccc1)NC(=O)COC(=O)c1ccc([N+](=O)[O-])cc1 (stereo not drawn) | inactive: 4.19%
22 | O=C(COC(=O)/C=C/c1ccc(F)cc1)Nc1cc(C(F)(F)F)ccc1N1CCOCC1 | inactive: 10.2%
23 | COC(=O)c1ccccc1NC(=O)NCCc1ccccc1OC | inactive: 15.1%
24 | O=C(CSc1ccc(Cl)cc1)Nc1cccc(-c2nnc(-c3ccco3)o2)c1 | inactive: 19.6%
25 | CN1CCN(c2ccc(NC(=O)c3ccc(-c4ccc(Br)cc4)o3)cc2)CC1 | inactive: -0.364%
26 | COc1cc2c(cc1OC)CN(C(=O)c1ccc(S(=O)(=O)N(C)c3ccccc3)cc1)CC2 | inactive: 5.78%
27 | CO/N=C(\N)c1nonc1N | inactive: 6.54%

Row | Structure (SMILES) | growth rescue (activation)
28 | C=CCN(c1ccccc1)S(=O)(=O)c1cc(C(=O)NC2=NCCS2)ccc1Cl | inactive: -7.06%
29 | O=C(CNC(=O)c1ccco1)N/N=C/c1ccc(O)c([N+](=O)[O-])c1 | inactive: -7.28%
30 | COc1ccc(C(=O)COC(=O)c2ccccc2NS(=O)(=O)c2ccc(O)c([N+](=O)[O-])c2)cc1 | inactive: 10%
31 | CN(CC(=O)Nc1ccc(Cl)c(C(F)(F)F)c1)C(=O)c1cnccn1 | inactive: -6.84%
32 | CCn1c(=O)cc(SCC(=O)NCCCN2CCC(C)CC2)c2ccccc21 | inactive: 5.09%
33 | Cc1ccnc(N2CCC(C(=O)NNC(=O)c3ccncc3)CC2)n1 | inactive: -7.7%
34 | Cc1nn(-c2ccc(F)cc2)c(C)c1CN1CCN(Cc2ccccc2)C(CCO)C1 (stereo not drawn) | inactive: -6.06%
35 | COc1ccc(C(C)(NC(C)=O)c2nc(-c3ccc(S(C)(=O)=O)cc3)cs2)cc1 (stereo not drawn) | inactive: 12.5%
36 | O=C(N/N=C\c1ccc(-c2ccc(Cl)c(Cl)c2)o1)C(=O)N1CCCC1 | inactive: 8.2%
37 | O=C(NCc1ccc2c(c1)OCO2)C1CCCN1C(=O)Nc1ccc(Cl)cc1 (stereo not drawn) | inactive: 5.3%
38 | O=C(NCCCNc1ccc([N+](=O)[O-])cc1)C(F)(F)F | inactive: 17.4%
39 | COc1ccc2c(c1)CCc1sc(NC(=O)c3ccc(C)cc3)nc1-2 | inactive: -12.2%
40 | COc1cccc(OC)c1C(=O)OCC(=O)N1CCC(Cc2ccccc2)CC1 | inactive: -7.12%
41 | COc1ccc(CC(=O)Nc2ccc(N3CCCC3)c(C)c2)cc1 | inactive: 5.49%
42 | CS(=O)(=O)N1CCN(c2ccc(Cl)cc2[N+](=O)[O-])CC1 | inactive: 20.1%
43 | CN(C)C=NC(=O)c1ccc(N2CCN(c3ncc(C(F)(F)F)cc3Cl)CC2)cc1 | inactive: -15.6%
44 | CC(=O)Nc1ccc(NC(=O)CCCCCn2nnc3ccccc3c2=O)cc1 | inactive: -11.3%
45 | O=S(=O)(NCc1ccccc1F)c1cccc(S(=O)(=O)N2CCOCC2)c1 | inactive: 2.88%
46 | CC1(C)Cc2c(cnn2-c2ccccc2)C(NC(=O)CCc2ccc(=O)[nH]n2)C1 (stereo not drawn) | inactive: 18.7%
47 | O=C(COC(=O)c1cc(S(=O)(=O)N2CCOCC2)ccc1F)Nc1cc([N+](=O)[O-])ccc1F | inactive: 32%
48 | CCCCCCCCC/C(=N\O)c1ccccn1 | inactive: -92.1%
49 | CC1CCCC(C)N1C(=O)COC(=O)/C=C/c1ccco1 (stereo not drawn) | inactive: 20.2%
50 | O=C(CCCN1C(=O)S/C(=C\C=C\c2ccccc2)C1=O)Nc1ccc(C(=O)O)cc1 | inactive: 12.1%
51 | COc1ccc(CCNc2nc(C)cc(C)n2)cc1OC | inactive: 8.85%
52 | C/C(CC(=O)Nc1ccc(N(C)C)cc1)=N\NC(=O)Cc1csc(N)n1 | inactive: 6.16%
53 | COC(=O)N/N=C/c1ccc(-c2ccc(Cl)cc2Cl)o1 | inactive: 8.11%
